Measurements published in PubChem BioAssay AID2675 (National Center for Advancing Translational Sciences (NCATS), 2010).
Out of some 280,000 compounds screened, about 100 (0.036%) were called active. The inconclusive results got no clear call from the source; some entries with a clear call stand among them for comparison. Calls come from the whole dose curve; as a rule, active = well fitted inhibition curve with a large enough effect in the signal ratio, with a control signal flat (not every such curve was filed as active); inconclusive = small, poorly fitted or top-dose-only effect, or effect the other way, or a change in a side signal; inactive = no such curve, though single readings can be large or run the other way; the % refers to the signal ratio. Where the call is inconclusive, the potency comes from a doubtful curve fit. A note “side channel” means that the fit belongs to a control or component signal, not to the main read-out.

Each compound was assayed against Muscleblind-like protein 1 (Homo sapiens) (UniProt Q9NR56) (assay: qHTS Assay for Inhibitors of MBNL1-poly(CUG) RNA binding). Conditions: TR-FRET MBNL1-His/biotin-(CUG)12 binding, 665/545 ratio; activity change, negative = inhibition: at 57.5 µM (top of the series).
Chain of UniProt Q9NR56 (Q9NR56 whole entry, looked up): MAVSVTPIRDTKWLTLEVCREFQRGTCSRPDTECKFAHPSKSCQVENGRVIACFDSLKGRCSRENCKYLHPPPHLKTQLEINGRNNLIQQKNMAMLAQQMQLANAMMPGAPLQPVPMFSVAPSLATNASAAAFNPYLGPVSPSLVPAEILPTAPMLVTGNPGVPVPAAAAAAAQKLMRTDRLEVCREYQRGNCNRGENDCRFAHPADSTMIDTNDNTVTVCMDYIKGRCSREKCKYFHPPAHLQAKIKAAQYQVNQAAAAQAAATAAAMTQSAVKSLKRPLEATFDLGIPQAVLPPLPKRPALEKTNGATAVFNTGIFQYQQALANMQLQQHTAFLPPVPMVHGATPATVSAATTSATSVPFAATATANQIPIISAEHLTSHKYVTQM
Outline: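 Compounds (final 92 nM to 58 uM) are added to His-tagged MBNL1 and biotin-(CUG)12, then terbium anti-His antibody and streptavidin-XL665 (5 nM final). After 60 min at room temperature, the 665/545 nm ratio is read.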
% is set by controls: 0 for no effect and ±100 for the full control effect; potency is the fitted concentration of half-maximal effect; tags give direction and shape of the fitted curve or compound fluorescence and quenching.

SMILES | activity change, negative = inhibition | Potency
COCCNS(=O)(=O)c1ccc2c(c1)Cc1cc(S(=O)(=O)NCCOC)ccc1-2 | inactive: 1.42% | 
O=C(Nc1cccc2cccnc12)c1ccc2c(c1)OCCO2 |  | inconclusive: 22.4 µM [quencher, side channel, partial curve]
COC(=O)CSc1nnc([C@H](CC(C)C)NC(=O)OC(C)(C)C)o1 | inactive: -3.36% | 
CN1C2CCC1CC(NC(=O)c1ccc([N+](=O)[O-])cc1)C2 (configuration not stated) |  | inconclusive: 25.1 µM [quencher, side channel, partial curve]
CCCOc1cccc(-c2cc(C(=O)NN)c3ccccc3n2)c1 | inactive: -1.24% [at 11.5 µM] | 
O=[n+]1c2c(n([O-])c3cc(F)c(N4CCCC4)cc31)CCCC2 |  | inconclusive: 14.1 µM [quencher, side channel, partial curve]
Cc1cccc(/C=N/n2c(-c3ccncc3)n[nH]c2=S)c1 | inactive: -2.98% | 
Cc1ccc(C)c(N(C)S(=O)(=O)c2ccc3[nH]cc(C(=O)NCCN4CCOCC4)c(=O)c3c2)c1 | inactive: -3.28% [at 11.5 µM] | 
O=C(NC1CCCC1)C(c1cccs1)N(Cc1ccco1)C(=O)Cn1nnc(-c2cccs2)n1 (configuration not stated) |  | inconclusive: 20 µM [quencher, side channel, single point]
COc1ccc(CC(=O)NNc2ncnc3c2cnn3-c2ccc(C)cc2)cc1OC | inactive: -1.87% | 
O=[N+]([O-])c1ccc(N(CCO)Cc2ccccc2)c([N+](=O)[O-])c1 |  | inconclusive: 6.31 µM [quencher, side channel, partial curve]
O=C(CCNS(=O)(=O)c1cccc2nsnc12)N1CCc2ccccc21 |  | inconclusive: 15.8 µM [quencher, side channel, partial curve]
CCOC(=O)c1c(C)[nH]c(C)c1S(=O)(=O)N(C)CC(=O)NCc1ccc(C)cc1 | inactive: -3.44% | 
Fc1ccc(Oc2nccc(-c3ccc(Cl)cc3)n2)cc1 |  | inconclusive: 0.199 µM [quencher, side channel, full curve, poor fit]
CCc1cc2cc(OC)ccc2nc1SCC(=O)Nc1cc(OC)c(OC)cc1C(=O)O |  | inconclusive: 100 µM [inhibitor, single point]
CC(=O)N1CCOc2ccc(S(=O)(=O)NCc3ccccc3Cl)cc21 |  | inconclusive: 0.708 µM [fluorescent, side channel, single point]
CCOC(=O)/C(C#N)=C/c1ccc(OC(=O)c2ccccn2)cc1 |  | inconclusive: 31.6 µM [quencher, side channel, single point]
COc1ccc(-c2csc(Cc3nnc4n3CCCCC4)n2)cc1 |  | inconclusive: 31.6 µM [quencher, side channel, partial curve]
COC(=O)Cn1c(O)c(N=NC(=O)CNC(=O)c2ccncc2)c2ccccc21 |  | inconclusive: 7.94 µM [quencher, side channel, partial curve]
CCCCCC1CCC(c2ccc(C(N)=O)cc2)CC1 (configuration not stated) | inactive: -0.116% | 
CCOC(=O)C[n+]1ccc2c([nH]c3ccccc32)c1C |  | inconclusive: 20 µM [quencher, single point]

SMILES | activity change, negative = inhibition | Potency
CC(=O)c1c(C)n([O-])c2cc(C)ccc2[n+]1=O |  | inconclusive: 12.6 µM [quencher, partial curve]
CNC(=O)c1nc(C)c(C2(C)CC(c3cccc([N+](=O)[O-])c3)=NO2)s1 (configuration not stated) |  | inconclusive: 14.1 µM [quencher, side channel, partial curve]
O=c1c2ccccc2nc(-c2cccs2)n1-c1ccc2ccccc2c1 |  | inconclusive: 17.8 µM [fluorescent, side channel, partial curve]
COCc1nc2oc3ccc(F)cc3c(=O)c2cc1C(=O)OC |  | inconclusive: 2.82 µM [quencher, side channel, full curve]
CCN(CCN(C)C)C(=O)c1ccc2c(c1NCCO)C(=O)c1ccccc1C2=O |  | inconclusive: 11.2 µM [quencher, side channel, partial curve]
O=C(Nc1ccc(OCC(F)(F)C(F)F)c(C(F)(F)F)c1)c1ccccc1O |  | inconclusive: 8.91 µM [quencher, side channel, single point]
O=C(CN1CCc2cc3c(cc2C1)OCCCO3)Nc1cccc([N+](=O)[O-])c1 |  | inconclusive: 7.08 µM [quencher, side channel, partial curve]
CC1=NN(c2ccccc2)C(=O)C1/C=C1\NC(=S)NC1=O (configuration not stated) |  | inconclusive: 35.5 µM [quencher, side channel, single point]
O=C(c1ccco1)N1CCN(C(=O)c2ccccc2Oc2ccccc2)CC1 |  | inconclusive: 39.8 µM [quencher, side channel, single point]
CC(C)CNC(=S)NC(=O)c1ccc([N+](=O)[O-])cc1 |  | inconclusive: 14.1 µM [quencher, side channel, partial curve]
O=C(CSc1cccc2cccnc12)OCC(=O)c1ccccc1 | inactive: 13.7% | 
CCn1c(CCNC(=O)c2cccs2)n[nH]c1=S |  | inconclusive: 31.6 µM [fluorescent, side channel, partial curve]
COc1ccccc1CNS(=O)(=O)c1c(C)[nH]c(C)c1C(=O)N1CCCC1 | inactive: -1.99% | 
COc1ccc(N=C2NC(=O)S/C2=C\c2ccc(N(C)C)cc2)cc1 | inactive: 12.8% | 
O=C(Nc1ccc(-c2nc3cccnc3s2)cc1)C1CCCO1 (configuration not stated) |  | inconclusive: 7.94 µM [quencher, side channel, full curve, poor fit]
Cc1cc(=O)oc2cc(N3C(=O)CC(Cc4ccccc4)C3=O)ccc12 (configuration not stated) | inactive: 5.78% | 
COc1cc(NC(=O)c2ccccc2)c(OC)cc1NC(=O)Cc1ccc(F)cc1 | inactive: -1.06% | 
CC(C)CC(=O)Nc1ccc([N+](=O)[O-])cc1Cl |  | inconclusive: 15.8 µM [quencher, partial curve]
O=C(/C=C/c1cnc2ccccc2n1)NC1CCCCCC1 |  | inconclusive: 20 µM [quencher, side channel, single point]
Cc1ccccc1N1C(=O)C(Cl)=C(N2CCOCC2)C1=O |  | inconclusive: 12.6 µM [quencher, side channel, partial curve]
O=C(NN=C1CCCC1)c1ccccc1[N+](=O)[O-] |  | inconclusive: 11.2 µM [quencher, side channel, partial curve]

SMILES | activity change, negative = inhibition | Potency
CCOC(=O)c1ccc(-n2c(CN3CCC(O)CC3)nc3ccc([N+](=O)[O-])cc3c2=O)cc1 |  | inconclusive: 8.91 µM [quencher, side channel, partial curve]
Cc1cc(C)cc(NC(=S)NC(=O)C2CC2)c1 | inactive: -0.267% | 
CCN(CC)c1ccc(N=C2C(=O)Nc3ccccc32)cc1 |  | inconclusive: 28.2 µM [quencher, side channel, partial curve]
N#C/C(=N\Nc1cc(Cl)cc(Cl)c1)c1nnc2n1CCCCC2 |  | inconclusive: 28.2 µM [quencher, side channel, single point]
O=[N+]([O-])c1ccc(CN2C=NS(=O)(=O)c3ccccc32)cc1 |  | inconclusive: 39.8 µM [quencher, side channel, single point]
O=C(NC1CCCC1)c1ccccc1OCc1ccccc1 | inactive: -5.11% | 
NC(=O)Nc1ccc(Cl)cc1 | inactive: -6.44% | 
Nc1ncnc(Nc2ccccn2)c1[N+](=O)[O-] |  | inconclusive: 12.6 µM [quencher, side channel, partial curve]
COCCNC(=O)c1cc2c(=O)n3cccc(C)c3nc2n(Cc2ccncc2)c1=N |  | inconclusive: 12.6 µM [quencher, side channel, partial curve]
Cc1ccc(N/N=C/c2c(C)c(C#N)c(=O)n(C)c2O)cc1C |  | inconclusive: 28.2 µM [quencher, side channel, single point]
CC(C)Cc1nnc(NS(=O)(=O)c2ccc([N+](=O)[O-])cc2)s1 |  | inconclusive: 31.6 µM [quencher, side channel, single point]
Cc1cc(C)nc(SCc2ccc([N+](=O)[O-])cc2)n1 |  | inconclusive: 28.2 µM [quencher, side channel, partial curve]
COC(=O)c1ccc(N/C(C)=C/C(=O)c2ccc(C)o2)cc1 | inactive: 4.96% | 
CSCC[C@H](NC(=O)c1cc([N+](=O)[O-])ccc1Cl)c1nc2ccccc2[nH]1 |  | inconclusive: 25.1 µM [quencher, side channel, single point]
COc1ccc(-n2cccc2/C=C2\C(=N)N3N=C(C(C)C)SC3=NC2=O)cc1 |  | inconclusive: 22.4 µM [quencher, side channel, single point]
COc1n[nH]c(C(=O)Nc2nc3ccccc3s2)c1[N+](=O)[O-] |  | inconclusive: 14.1 µM [quencher, side channel, partial curve]
Cn1cccc1C(=O)NCCc1ccccc1 | inactive: -2.52% | 
CC(Sc1nnnn1-c1ccc(Cl)cc1)C(=O)NCC(=O)Nc1ccc(F)c(F)c1F (configuration not stated) |  | inconclusive: 3.98 µM [quencher, side channel, single point]
COc1ccc(C(=S)N2CCCC2)cc1 |  | inconclusive: 1.58 µM [fluorescent, side channel, full curve, poor fit]
O=C(NC(=S)Nc1ccccc1)c1cc([N+](=O)[O-])ccc1N1CCOCC1 |  | inconclusive: 15.8 µM [quencher, side channel, partial curve]
